Residue numbers refer to the chain shown, from its start. Names may count otherwise. Results are given in words; binding and its absence hold for the method and conditions named. For some of these results: Binding seen in cells or lysates may run through a third protein. Some results given as binding are weak or reduced against the parent protein; the word gives no strength. For some of these results: Tags and fused reporters may be left off the sequences shown. One block for each molecule: values may come before it.
Assays:
[1] = molecular target: T1, p115(1–655)–HA–MAO (human) (UniProt O60763); experiment: mitochondrial relocation assay (confocal microscopy); one partner anchored on mitochondria in HeLa cells (HA–MAO chimera); relocation of the endogenous or co-expressed partner to mitochondria seen by immunofluorescence or GFP
T1 sequence: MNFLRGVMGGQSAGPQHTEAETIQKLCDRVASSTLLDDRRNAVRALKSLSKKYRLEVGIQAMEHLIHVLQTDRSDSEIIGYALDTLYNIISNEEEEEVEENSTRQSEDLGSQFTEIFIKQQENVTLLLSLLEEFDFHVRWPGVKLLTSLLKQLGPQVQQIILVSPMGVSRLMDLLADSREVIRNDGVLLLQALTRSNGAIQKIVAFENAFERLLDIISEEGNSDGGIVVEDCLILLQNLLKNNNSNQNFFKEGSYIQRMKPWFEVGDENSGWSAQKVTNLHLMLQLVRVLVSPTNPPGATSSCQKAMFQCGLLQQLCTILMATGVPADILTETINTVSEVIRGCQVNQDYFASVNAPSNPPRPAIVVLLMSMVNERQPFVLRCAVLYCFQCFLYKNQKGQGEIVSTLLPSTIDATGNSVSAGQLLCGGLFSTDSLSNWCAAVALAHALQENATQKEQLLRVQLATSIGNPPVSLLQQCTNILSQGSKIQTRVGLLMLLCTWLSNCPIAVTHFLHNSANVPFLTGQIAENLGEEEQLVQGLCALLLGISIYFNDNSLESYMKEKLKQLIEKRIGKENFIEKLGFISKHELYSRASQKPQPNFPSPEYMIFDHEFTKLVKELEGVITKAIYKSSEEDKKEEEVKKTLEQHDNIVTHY

Chains of the proteins cited; added tags and fusions are not shown. Lines headed by an entry give the natural chain unless they say otherwise; changes in a name come on top. Residues count along the entry.
UniProt O15027: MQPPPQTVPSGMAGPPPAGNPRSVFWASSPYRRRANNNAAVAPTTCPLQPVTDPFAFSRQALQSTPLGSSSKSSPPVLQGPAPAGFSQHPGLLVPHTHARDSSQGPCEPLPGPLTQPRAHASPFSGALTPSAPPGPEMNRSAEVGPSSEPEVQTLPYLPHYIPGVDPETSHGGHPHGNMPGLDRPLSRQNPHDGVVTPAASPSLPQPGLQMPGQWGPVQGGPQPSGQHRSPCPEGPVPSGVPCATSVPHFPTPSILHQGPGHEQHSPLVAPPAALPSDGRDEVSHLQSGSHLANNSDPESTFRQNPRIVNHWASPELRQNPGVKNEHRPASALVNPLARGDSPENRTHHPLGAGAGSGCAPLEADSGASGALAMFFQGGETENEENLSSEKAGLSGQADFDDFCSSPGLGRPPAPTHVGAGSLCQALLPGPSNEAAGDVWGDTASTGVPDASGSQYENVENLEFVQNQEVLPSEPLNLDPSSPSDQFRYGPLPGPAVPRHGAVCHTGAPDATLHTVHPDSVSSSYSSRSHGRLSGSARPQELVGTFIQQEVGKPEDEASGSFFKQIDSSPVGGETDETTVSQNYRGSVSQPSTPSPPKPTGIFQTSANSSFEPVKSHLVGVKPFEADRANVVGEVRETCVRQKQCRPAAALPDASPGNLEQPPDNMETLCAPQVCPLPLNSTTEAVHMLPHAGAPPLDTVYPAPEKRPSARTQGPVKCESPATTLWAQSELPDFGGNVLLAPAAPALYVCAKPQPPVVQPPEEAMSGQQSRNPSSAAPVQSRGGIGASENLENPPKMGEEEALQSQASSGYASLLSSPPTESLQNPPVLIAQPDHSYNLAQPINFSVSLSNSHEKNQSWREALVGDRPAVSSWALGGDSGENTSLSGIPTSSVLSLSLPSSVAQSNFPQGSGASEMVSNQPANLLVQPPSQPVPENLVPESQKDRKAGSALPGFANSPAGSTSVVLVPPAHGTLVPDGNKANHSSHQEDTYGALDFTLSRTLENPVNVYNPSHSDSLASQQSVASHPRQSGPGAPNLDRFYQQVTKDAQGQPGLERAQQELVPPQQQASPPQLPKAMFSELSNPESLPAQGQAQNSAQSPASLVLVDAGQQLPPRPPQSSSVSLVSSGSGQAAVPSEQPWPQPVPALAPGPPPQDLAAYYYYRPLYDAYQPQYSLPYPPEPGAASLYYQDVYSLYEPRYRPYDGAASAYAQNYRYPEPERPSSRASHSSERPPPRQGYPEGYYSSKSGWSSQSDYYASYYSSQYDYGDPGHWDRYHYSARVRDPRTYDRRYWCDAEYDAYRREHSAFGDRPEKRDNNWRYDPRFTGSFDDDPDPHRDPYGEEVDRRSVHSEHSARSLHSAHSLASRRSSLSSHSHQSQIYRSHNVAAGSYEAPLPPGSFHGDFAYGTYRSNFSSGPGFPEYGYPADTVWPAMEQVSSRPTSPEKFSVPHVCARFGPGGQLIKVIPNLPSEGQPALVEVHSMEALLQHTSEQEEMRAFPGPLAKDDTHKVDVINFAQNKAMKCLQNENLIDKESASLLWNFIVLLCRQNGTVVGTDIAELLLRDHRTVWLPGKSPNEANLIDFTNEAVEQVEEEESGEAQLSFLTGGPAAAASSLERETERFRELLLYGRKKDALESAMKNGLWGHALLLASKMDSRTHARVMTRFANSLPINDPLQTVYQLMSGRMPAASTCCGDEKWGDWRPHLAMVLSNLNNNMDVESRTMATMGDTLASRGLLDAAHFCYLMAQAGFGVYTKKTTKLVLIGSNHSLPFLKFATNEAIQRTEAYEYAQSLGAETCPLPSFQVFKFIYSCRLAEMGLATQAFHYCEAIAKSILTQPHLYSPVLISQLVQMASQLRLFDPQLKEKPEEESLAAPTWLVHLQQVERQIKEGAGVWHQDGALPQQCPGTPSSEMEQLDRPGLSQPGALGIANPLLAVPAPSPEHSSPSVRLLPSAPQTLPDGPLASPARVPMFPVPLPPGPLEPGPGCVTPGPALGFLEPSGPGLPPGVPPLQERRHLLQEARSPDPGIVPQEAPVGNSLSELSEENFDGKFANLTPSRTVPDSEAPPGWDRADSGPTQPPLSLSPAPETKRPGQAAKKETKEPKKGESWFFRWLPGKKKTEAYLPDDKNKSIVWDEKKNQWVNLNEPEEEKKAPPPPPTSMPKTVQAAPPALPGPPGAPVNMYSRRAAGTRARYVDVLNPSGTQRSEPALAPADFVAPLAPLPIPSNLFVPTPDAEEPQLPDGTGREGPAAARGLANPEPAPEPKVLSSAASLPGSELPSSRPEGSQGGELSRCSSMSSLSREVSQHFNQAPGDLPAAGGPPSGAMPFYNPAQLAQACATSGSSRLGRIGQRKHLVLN
Sec16A (650–776)–GFP: residues 650-776 of O15027

[2] = molecular target: mitochondrial form of Sec16A (650–776) (human) (UniProt O15027); experiment: as above
[3] = molecular target: Sec16A (650–776)–GFP (human) (UniProt O15027); experiment: co-IP; GFP-tagged protein expressed in HEK293T cells, precipitated on GFP-Trap agarose (lysis with 150 mM NaCl, 0.5% Triton X-100; washes with 300 mM NaCl; 4°C); endogenous partner detected by immunoblot
[4] = molecular target: Sec16A (650–776)–GFP (human) (UniProt O15027); experiment: pull-down; direct binding assay: FLAG-tagged protein eluted from anti-FLAG beads (1 M NaCl wash, 3×FLAG peptide) was incubated for 1 h at 4°C with GFP-tagged protein held on GFP-Trap beads after harsh washes (1% SDS; 1 M NaCl, 1% Triton X-100); washes with 300 mM NaCl; immunoblot; both purified

binding [1]: binds
Molecule: GFP–Sec16A (1–1101) (from UniProt O15027 1-1101) (domain or fragment)

binding [1]: no binding
Molecule: GFP–Sec16A (1101–1890) (from UniProt O15027 1101-1890) (domain or fragment)

binding [1]: no binding
Molecule: GFP–Sec16A (1891–2357) (from UniProt O15027 1891-2357) (domain or fragment)

binding [1]: binds
Molecule: Sec16A (511–1101)–GFP (from UniProt O15027 511-1101) (domain or fragment)

binding [2]: binds
B1: endogenous p115 (HeLa) (protein, UniProt O60763 1-962)
chain: MNFLRGVMGGQSAGPQHTEAETIQKLCDRVASSTLLDDRRNAVRALKSLSKKYRLEVGIQAMEHLIHVLQTDRSDSEIIGYALDTLYNIISNEEEEEVEENSTRQSEDLGSQFTEIFIKQQENVTLLLSLLEEFDFHVRWPGVKLLTSLLKQLGPQVQQIILVSPMGVSRLMDLLADSREVIRNDGVLLLQALTRSNGAIQKIVAFENAFERLLDIISEEGNSDGGIVVEDCLILLQNLLKNNNSNQNFFKEGSYIQRMKPWFEVGDENSGWSAQKVTNLHLMLQLVRVLVSPTNPPGATSSCQKAMFQCGLLQQLCTILMATGVPADILTETINTVSEVIRGCQVNQDYFASVNAPSNPPRPAIVVLLMSMVNERQPFVLRCAVLYCFQCFLYKNQKGQGEIVSTLLPSTIDATGNSVSAGQLLCGGLFSTDSLSNWCAAVALAHALQENATQKEQLLRVQLATSIGNPPVSLLQQCTNILSQGSKIQTRVGLLMLLCTWLSNCPIAVTHFLHNSANVPFLTGQIAENLGEEEQLVQGLCALLLGISIYFNDNSLESYMKEKLKQLIEKRIGKENFIEKLGFISKHELYSRASQKPQPNFPSPEYMIFDHEFTKLVKELEGVITKAIYKSSEEDKKEEEVKKTLEQHDNIVTHYKNMIREQDLQLEELRQQVSTLKCQNEQLQTAVTQQVSQIQQHKDQYNLLKIQLGKDNQHQGSYSEGAQMNGIQPEEIGRLREEIEELKRNQELLQSQLTEKDSMIENMKSSQTSGTNEQSSAIVSARDSEQVAELKQELATLKSQLNSQSVEITKLQTEKQELLQKTEAFAKSVEVQGETETIIATKTTDVEGRLSALLQETKELKNEIKALSEERTAIKEQLDSSNSTIAILQTEKDKLELEITDSKKEQDDLLVLLADQDQKILSLKNKLKDLGHPVEEEDELESGDQEDEDDESEDPGKDLDHI

binding [3]: binds
B2: endogenous p115 (HEK293T) (protein, UniProt O60763 1-962)
chain: B1 chain

binding [4]: no binding
B3: FLAG-tagged p115 head domain (1–655) with the Q462D mutation (domain or fragment, UniProt O60763 1-655)
chain: T1 sequence with Q462D

From paper PMC7619307, “The Golgi vesicle tether p115 can bind directly to the ER exit site organiser Sec16A” (Journal of cell science, 2026)
